# Measurements reported in PubChem BioAssay AID485344 (National Center for Advancing Translational Sciences (NCATS), 2010).
# Screen size: about 340,000 compounds; about 6,900 (2%) were called active. Rule as the data show it: active = inhibition above about 30%; inactive = below that, where a call was filed. This is a selection; strong and weak results do not stand in their true shares. Where no call is shown, the source filed none.
# Molecular target: D(2) dopamine receptor (Homo sapiens) (UniProt P14416)
# Sequence of UniProt P14416 (P14416 whole entry, looked up): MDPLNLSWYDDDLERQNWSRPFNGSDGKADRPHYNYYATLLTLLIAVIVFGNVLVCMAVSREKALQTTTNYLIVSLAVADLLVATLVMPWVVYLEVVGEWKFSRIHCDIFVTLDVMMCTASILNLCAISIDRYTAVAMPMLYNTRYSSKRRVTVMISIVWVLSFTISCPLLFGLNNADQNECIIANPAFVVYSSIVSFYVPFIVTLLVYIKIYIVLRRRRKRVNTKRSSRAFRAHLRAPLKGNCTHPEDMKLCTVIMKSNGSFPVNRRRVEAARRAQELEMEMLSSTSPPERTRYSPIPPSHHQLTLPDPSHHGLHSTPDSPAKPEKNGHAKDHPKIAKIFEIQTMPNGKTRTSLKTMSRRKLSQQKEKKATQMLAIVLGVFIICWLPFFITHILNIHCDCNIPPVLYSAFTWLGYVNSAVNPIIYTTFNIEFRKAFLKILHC
# Test: HTS Assay for Allosteric Antagonists of the Human D2 Dopamine Receptor: Primary Screen for Antagonists; also: 0% is about no effect
# Settings: HEK293 TREx D2 cells, calcium flux, dopamine EC80; at 10 µM; stronger effect = higher value
# Outline: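 Inhibition of EC80 dopamine-driven calcium flux, recorded kinetically, defines activity here; cells are a tetracycline-induced HEK293 T-REx line expressing force-coupled D2.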
row,SMILES,inhibition
1,Cn1c(=O)nc2n(-c3ccc(Cl)c(Cl)c3)c3cc(Cl)ccc3cc-2c1=O,-5.26%
2,CCCCNC(=O)NS(=O)(=O)c1ccc(C)cc1,active: 33.2%
3,O=C(Nc1c(C(=O)Nc2ccc(F)cc2)oc2ccccc12)c1ccccc1F,5.06%
4,COc1ccc(CN2CCCC(C(=O)Nc3cccc(-n4cccn4)c3)C2)cc1 (stereo not given),active: 78.6%
5,Cc1ccc(NC(=O)C(C)Sc2nc(=O)cc(N)n2-c2cccc(C)c2)cc1 (stereo not given),19.6%
6,Cc1c(C2=CCN(S(=O)(=O)c3cccc(Cl)c3)CC2)c2ccccc2n1CC(=O)N1CCCC1,9.86%
7,CN(Cc1ccccc1)S(=O)(=O)c1ccc(-c2cnc(C3CC3)o2)cc1,-16.3%
8,COc1cccc(S(=O)(=O)N2CCN(Cc3ccc4c(c3)OCO4)CC2)c1,18%
9,CCc1ccc(-c2nc3c(c(SCc4ccccc4F)n2)Cc2c(CO)cnc(C)c2O3)cc1,-4.83%
10,Cc1cccc(N2CCN(C(=O)CN3CCSc4ccccc43)CC2C)c1 (stereo not given),-19.2%
11,CCOc1ccc(NC(=O)NCCc2c(C)nn(C)c2C)cc1,15.5%
12,COc1ccc(OC)c(CNC(=O)c2ccc(-c3nc(CSc4ccccc4)c(C)o3)cc2)c1,1.75%
13,CC1CCc2nn(CC(=O)Nc3ccccc3Cl)cc2C1 (stereo not given),2.82%
14,Cc1ccc(NC(=O)c2cnn3c(C(F)F)cc(-c4ccccc4)nc23)cc1F,15%
15,CCCn1c(SCc2nc(-c3ccc(OC)c(OC)c3)no2)nnc1-c1ccccc1,-10.2%
16,CC(C)Oc1ccc(C(=O)N2CCN(CCc3ccccn3)CC2)cc1,-3.81%
17,O=C(NCCc1ccccc1)C1CCC(CNS(=O)(=O)c2ccccc2)CC1 (stereo not given),-12.8%
18,CCCc1nc(SC)ncc1C(=O)N1CCN(c2ccc(Cl)cc2)CC1,5%
19,COc1ccc(CN(Cc2ccco2)c2cnc(S(C)(=O)=O)nc2C(=O)Nc2ccc(C)c(Cl)c2)cc1,-0.493%
20,O=C(Nc1ccc2nc(SCC(=O)N3CCc4ccccc43)sc2c1)c1ccc(F)cc1,20.6%
21,O=c1c2oc3ccccc3c2n(Cc2ccccc2Cl)c(=O)n1Cc1ccco1,7.81%
22,O=C(CCS(=O)(=O)c1cc2c(cc1Cl)NC(=O)CO2)NCc1ccccc1Cl,8.72%
23,CC(C)Oc1ccc(CNC(=O)c2ccc(CN3CC(=O)N4CCCCC4C3=O)cc2)cc1 (stereo not given),-0.272%
24,Oc1c(C(c2ccc(Cl)cc2Cl)N2CCN(c3ccccc3)CC2)sc2nc(-c3ccco3)nn12 (stereo not given),-13%

row,SMILES,inhibition
1,O=C(NCc1cccc(Cl)c1)c1ccc(NC(=O)N2CC3CCCN3c3ccccc32)cc1 (stereo not given),0.453%
2,CSc1ncc(C(=O)NCc2cccc(F)c2)c(-c2ccccc2)n1,14.7%
3,O=C(c1ccccc1)N(Cc1ccco1)C1CCS(=O)(=O)C1 (stereo not given),active: 37.4%
4,Cc1sc2ncn(CC(=O)N3CCN(c4ccc(F)cc4)CC3)c(=O)c2c1S(=O)(=O)N1CCC(C)CC1,1.35%
5,Cc1ccc(CNC(=O)Cn2c(=O)cc(C(F)(F)F)c3c(C)nn(C)c32)cc1,8.79%
6,COC(=O)C1=C(c2ccccc2)c2ccccc2S(=O)(=O)N1CC(=O)Nc1ccc(F)c(F)c1,12.6%
7,CCOc1ccc(-c2nc(Cn3c(=O)cc(-c4ccccc4)c4c(C)nn(C)c43)c(C)o2)cc1,-2.72%
8,CCCCN1C(=O)c2ccc(C(=O)Nc3ccccc3N3CCOCC3)cc2C1=O,active: 43.8%
9,CCOc1ccc(NC(=O)CN(c2ccc(CC)cc2)S(=O)(=O)c2c(C)noc2C)cc1,-2.7%
10,CCN1c2ccccc2-c2nc(SCC(=O)NCc3ccc(C)cc3)ncc2S1(=O)=O,-6.95%
11,CCOC(=O)c1ccc(NC(=O)Cn2cc(C(=O)c3ccc(CC)cc3)c(=O)c3ccc(C)nc32)cc1,-2.29%
12,COc1ccc(CNC(=O)c2cnc3sc(N4CCCCCC4)nn3c2=O)cc1,-1.05%
13,CCOC(=O)c1cnc2ccccc2c1NCCc1ccc(OC)c(OC)c1,-17%
14,CCN1CCN(C2=C(NS(=O)(=O)c3ccc(C)cc3)C(=O)c3ccccc3C2=O)CC1,active: 39.3%
15,COc1cc(OC)c(C2Nc3c(C)cccc3-c3cc(C)nn32)cc1OC (stereo not given),10.4%
16,COC(=O)c1ccc(NC(=O)CC2C(=O)N(c3ccc(Cl)cc3)C(=O)N2Cc2ccco2)cc1 (stereo not given),5.4%
17,O=C1CCCc2c1[nH]c1ccc(CN3CCCCC3)cc21,active: 50.9%
18,CC1=C(c2ccc(C)cc2)S(=O)(=O)NC1=NCc1cccc(F)c1,10.2%
19,CCN1C(=O)c2ccccc2S(=O)c2ccc(C(=O)N3CCN(c4cccc(C)c4)C(C)C3)cc21 (stereo not given),-18.2%
20,c1ccc(CN2CCN(c3ncnc4nc[nH]c34)CC2)cc1,active: 68.3%
21,Cc1[nH]c2ccccc2c1C1N2CC3(C)CN1CC(C)(C2)C3=O (stereo not given),-6.7%
22,CC1=C(C(=O)OCc2ccccc2)C(c2cccc(Cl)c2Cl)CC(=O)N1 (stereo not given),8.87%
23,O=C(Nc1ccc(Br)cc1F)N1CCC(CN2CCCC2)CC1,18.3%
24,Cc1nn(C)c2c1c(C(F)(F)F)cc(=O)n2C(C)C(=O)NCc1ccc(Cl)cc1 (stereo not given),-27.5%

row,SMILES,inhibition
1,CCOC(=O)c1ccc(NS(=O)(=O)c2cc(-c3onc(C)c3C)ccc2C)cc1,7.57%
2,Cc1cccc(CNC(=O)CSCc2cnn(-c3ccccc3)c2-n2cccc2)c1,-3.01%
3,COc1ccc(OCc2nc3c4c(-c5ccccc5)c(-c5ccccc5)oc4ncn3n2)cc1,5.44%
4,COc1cccc(C(=O)c2cn(CC(=O)NCc3ccccc3)c3nc(C)ccc3c2=O)c1,-8.55%
5,COC(=O)c1sc(NC(=O)/C=C/c2ccc(OC)c(OC)c2)c(C(=O)OC)c1C,18%
6,COc1ccc(CNC(=O)CSc2nc3ccccc3nc2Cc2ccccc2OC)cc1,1.68%
7,CCN1CCN(c2cc3c(cc2F)c(=O)c(S(=O)(=O)c2ccccc2)cn3C)CC1,7.62%
8,CC(C)NC(=O)CCCN1C(=O)CCn2nc(-c3cccn3C)cc21,13.5%
9,COC(=O)c1cc2c(cc1NC(=O)c1cnn(-c3ccc(C)cc3)c1-n1cccc1)OCO2,10.8%
10,COc1ccc(-c2nn(-c3ccccc3)cc2/C=N/NC(=O)c2cccc(S(=O)(=O)Nc3ccccc3Cl)c2)cc1,active: 45.2%
11,COc1ccccc1NC(=O)CSc1nc2ccccc2c2nc(-c3ccccc3)nn12,2.73%
12,COc1ccccc1-c1cc(C(=O)Nc2ccccc2C(F)(F)F)no1,-14.5%
13,Cc1ccc(C2=Nc3ccccc3N(CC(=O)NCc3ccc(F)cc3)C(=O)C2)cc1C,-3.46%
14,O=C(O)c1ccc(-n2c(/C=C\c3ccc(O)cc3)nc3ccccc3c2=O)cc1,-15.1%
15,CCOC(=O)c1ccccc1NC(=O)c1sc2ncn(Cc3cccc(F)c3)c(=O)c2c1C,16.5%
16,COc1ccc(OC)c(S(=O)(=O)NCc2cccn2Cc2cccc(C)c2)c1,10.1%
17,CC1=C(C(=O)Nc2cccnc2)C(c2ccc(Cl)cc2)n2nc(-c3ccccc3)nc2N1 (stereo not given),-1.83%
18,Cc1ccc(C)c(NC(=O)CSc2c3c(nc4ccc(Cl)cc24)CCCC3)c1,7.74%
19,COc1cn(CC(=O)Nc2cccc(C)c2C)c(CN2CCCCC2)cc1=O,13.1%
20,Cn1c(=O)c2c(nc3n(-c4ccc(O)cc4)c(-c4ccc(Br)cc4)cn23)n(C)c1=O,2.73%
21,COc1ccc(C(=O)Nc2cccc(OCc3cc(=O)n4c5c(sc4n3)CCCC5)c2)cc1,4.99%
22,Cc1nc2ccccn2c(=O)c1NC(=O)c1ccc(C(F)(F)F)cc1,7.94%
23,COc1ccccc1NC(=O)CN1CCCN(S(=O)(=O)c2ccc(Br)cc2)CC1,4.32%
24,Cc1ccc(NC(=O)Cn2c(=O)n(CCCCC(=O)NCc3ccccc3Cl)c(=O)c3ccccc32)cc1C,-15.1%

row,SMILES,inhibition
1,CCOc1ccc(NC(=O)Cn2c(C)cc3ccccc3c2=O)cc1,3.57%
2,Cc1cc(Nc2ccc(F)cc2)n2c(nc3ccccc32)c1C#N,10.4%
3,COC(=O)c1ccccc1NC(=O)c1ccc2c(c1)CCN2S(C)(=O)=O,17%
4,COc1cc(Nc2ncc3c(n2)CCN(Cc2cc(Br)cs2)C3)cc(OC)c1,0.122%
5,Cc1c(-c2nc(-c3ccccc3)no2)nnn1-c1cccc(C(F)(F)F)c1,-6.6%
6,Cc1ccc(CSc2nc3c([nH]c4ccccc43)c(=O)n2C)cc1,-15.6%
7,COc1ccccc1CNC(=O)c1ccc2c(c1)nc(C)n2-c1ccccc1OC,-9.31%
8,Cc1nn2c(-c3ccco3)ccnc2c1-c1ccc(F)cc1,13.6%
9,CCN1CCOC(=O)C1CC(=O)Nc1cc(C)cc(C)c1 (stereo not given),3.8%
10,Cc1ccccc1CN1C(=O)c2ccccc2Sc2ccc(C(=O)NC(C)c3ccccc3)cc21 (stereo not given),4.95%
11,COc1ccc(NC(=O)CC2C(=O)N(c3ccc(F)cc3)C(=O)N2Cc2ccco2)cc1 (stereo not given),4.02%
12,Cc1ccc(N2C(=O)CCSC23C(=O)N(Cc2ccccc2)c2ccccc23)cc1F (stereo not given),-8.78%
13,O=C(NCc1ccccc1)c1nn(-c2ccccc2)nc1CO,10.2%
14,COc1ccc(OC)c(/C=C(/C#N)c2nc(-c3ccc(-c4ccccc4)cc3)cs2)c1,21.6%
15,Cc1ccc(CNC(=O)Cn2c(=O)n(-c3ccc(Cl)cc3)c(=O)c3c(C)c(C)sc32)cc1,-0.592%
16,O=C(NCc1ccc(F)cc1)c1cc2c(=O)n3ccccc3nc2s1,4.44%
17,Cc1cc(C)cc(NS(=O)(=O)c2ccc3[nH]cc(C(=O)N(C)Cc4ccccc4)c(=O)c3c2)c1,3.41%
18,Cc1ccc(-c2nnc(C3CCN(S(=O)(=O)c4ccc(C)c(C)c4)CC3)o2)cc1,2.78%
19,CCOc1ccccc1NC(=O)CN1C(=O)CC(c2ccc(OC)c(OC)c2)Sc2ccccc21 (stereo not given),8.39%
20,CCCCOC(=O)c1ccc(NC(=O)CSc2nc3c(c(=O)[nH]2)CCCC3)cc1,9.5%
21,Cn1c(-n2cccc2)c(-c2c(-c3ccccc3)[nH]c3c2c(=O)n(C)c(=O)n3C)c(=O)n(C)c1=O,10.4%
22,COc1ccc(Cl)cc1Nc1nc(C)cc(=O)[nH]1,active: 74.4%
23,CCc1ccccc1NC(=O)Nc1nnc(N(C)Cc2ccccc2)s1,0.384%
